Literature values, collected in PMC11006913.
Some of the results follow.

Target: NKX2-5 K183E (Homo sapiens) (UniProt P52952)
Conditions: PBM; conditions not shown; double strand, one strand shown; scale: upbm affinity estimate (log intensity, higher = more binding, comparable within an allelic series)
In the case of GACACTTA [8-mer GACACTTA], the binding signal is listed as 11.4. In the case of CACTTGAC [8-mer CACTTGAC], the binding signal is listed as 11.8. In the case of CACCTTGG [8-mer CACCTTGG], the binding signal is given as 10.3. In the case of CCGTGGGC [8-mer CCGTGGGC], the binding signal is given as 9.9. In the case of AAGTGGGC [8-mer AAGTGGGC], the binding signal is given as 11.5. For AAGTGGTC [8-mer AAGTGGTC], the binding signal is listed as 11.7. In the case of CCACTTGA [8-mer CCACTTGA], the binding signal is given as 12.7. For AAGTACTC [8-mer AAGTACTC], the binding signal is listed as 10.9. In the case of AATAAGTG [8-mer AATAAGTG], the binding signal is given as 11.6. For ATAAGTAC [8-mer ATAAGTAC], the binding signal is listed as 11.3. For AACCACTT [8-mer AACCACTT], the binding signal is given as 12.1. For CCGGCGCC [8-mer CCGGCGCC], the binding signal is given as 10.1. For AAACCGGT [8-mer AAACCGGT], the binding signal is given as 10.3. In the case of CCACTTTA [8-mer CCACTTTA], the binding signal is listed as 11.9. In the case of CTTCCGTC [8-mer CTTCCGTC], the binding signal is given as 10.2. For CGGCCTGA [8-mer CGGCCTGA], the binding signal is given as 10.1. For CGGGAACC [8-mer CGGGAACC], the binding signal is listed as 10.2. For ACTAAGTG [8-mer ACTAAGTG], the binding signal is listed as 11.5. For GCCGACCA [8-mer GCCGACCA], the binding signal is given as 10.4. In the case of CCACTCGA [8-mer CCACTCGA], the binding signal is listed as 11.5. For CACTTCAA [8-mer CACTTCAA], the binding signal is given as 11.5. In the case of ACACGGCG [8-mer ACACGGCG], the binding signal is given as 10.2. For CGAGCACG [8-mer CGAGCACG], the binding signal is given as 10.2. In the case of CCAGTTCG [8-mer CCAGTTCG], the binding signal is given as 10.4. In the case of CAAAAGTG [8-mer CAAAAGTG], the binding signal is listed as 10.9. For AACAGGCG [8-mer AACAGGCG], the binding signal is given as 10.3. For CTGGGGGA [8-mer CTGGGGGA], the binding signal is listed as 10.2. In the case of GTACTTGA [8-mer GTACTTGA], the binding signal is listed as 11.2. In the case of GCGGTGCA [8-mer GCGGTGCA], the binding signal is given as 10.1. For CGCATCCC [8-mer CGCATCCC], the binding signal is given as 10.2. In the case of AGTTCGGG [8-mer AGTTCGGG], the binding signal is listed as 10.2. In the case of CCAGCACC [8-mer CCAGCACC], the binding signal is given as 10.1. In the case of CGAACACG [8-mer CGAACACG], the binding signal is given as 10.4. For GCACTTGA [8-mer GCACTTGA], the binding signal is given as 11.6. For CAGCTCCG [8-mer CAGCTCCG], the binding signal is given as 10.1. In the case of CCCAGTCC [8-mer CCCAGTCC], the binding signal is listed as 10.2. In the case of ACACTTAG [8-mer ACACTTAG], the binding signal is listed as 11.3. In the case of CCTCTTGA [8-mer CCTCTTGA], the binding signal is listed as 11.9. For CAAGTGGA [8-mer CAAGTGGA], the binding signal is given as 11.5. For AGCGACCC [8-mer AGCGACCC], the binding signal is listed as 10.2.

Target: NKX2-5 R161P (Homo sapiens) (UniProt P52952)
Conditions: PBM; conditions not shown; double strand, one strand shown; scale: upbm affinity estimate (log intensity, higher = more binding, comparable within an allelic series)
For GACACTTA [8-mer GACACTTA], the binding signal is given as 12.8. For CACTTGAC [8-mer CACTTGAC], the binding signal is given as 13. In the case of CACCTTGG [8-mer CACCTTGG], the binding signal is listed as 10.6. In the case of CCGTGGGC [8-mer CCGTGGGC], the binding signal is listed as 9.96. In the case of AAGTGGGC [8-mer AAGTGGGC], the binding signal is listed as 12.5. For AAGTGGTC [8-mer AAGTGGTC], the binding signal is given as 12.6. In the case of CCACTTGA [8-mer CCACTTGA], the binding signal is given as 13.6. In the case of AAGTACTC [8-mer AAGTACTC], the binding signal is given as 12.7. In the case of AATAAGTG [8-mer AATAAGTG], the binding signal is listed as 12.6. In the case of ATAAGTAC [8-mer ATAAGTAC], the binding signal is given as 12.8. For AACCACTT [8-mer AACCACTT], the binding signal is given as 12.9. In the case of CCGGCGCC [8-mer CCGGCGCC], the binding signal is listed as 10.4. For AAACCGGT [8-mer AAACCGGT], the binding signal is given as 10.3. In the case of CCACTTTA [8-mer CCACTTTA], the binding signal is listed as 12.9. In the case of CTTCCGTC [8-mer CTTCCGTC], the binding signal is listed as 10.3. In the case of CGGCCTGA [8-mer CGGCCTGA], the binding signal is given as 10.2. In the case of CGGGAACC [8-mer CGGGAACC], the binding signal is given as 10.4. In the case of ACTAAGTG [8-mer ACTAAGTG], the binding signal is listed as 12.6. In the case of GCCGACCA [8-mer GCCGACCA], the binding signal is given as 10.5. In the case of CCACTCGA [8-mer CCACTCGA], the binding signal is given as 12.4. In the case of CACTTCAA [8-mer CACTTCAA], the binding signal is listed as 12.6. In the case of ACACGGCG [8-mer ACACGGCG], the binding signal is listed as 10.2. In the case of CGAGCACG [8-mer CGAGCACG], the binding signal is given as 10.3. For CCAGTTCG [8-mer CCAGTTCG], the binding signal is given as 10.5. In the case of CAAAAGTG [8-mer CAAAAGTG], the binding signal is listed as 11.7. For AACAGGCG [8-mer AACAGGCG], the binding signal is given as 10.4. In the case of CTGGGGGA [8-mer CTGGGGGA], the binding signal is given as 10.4. In the case of GTACTTGA [8-mer GTACTTGA], the binding signal is given as 13. For GCGGTGCA [8-mer GCGGTGCA], the binding signal is listed as 10.3. For CGCATCCC [8-mer CGCATCCC], the binding signal is given as 10.4. For AGTTCGGG [8-mer AGTTCGGG], the binding signal is given as 10.4. For CCAGCACC [8-mer CCAGCACC], the binding signal is given as 10.3. For CGAACACG [8-mer CGAACACG], the binding signal is listed as 10.3. In the case of GCACTTGA [8-mer GCACTTGA], the binding signal is given as 13.2. In the case of CAGCTCCG [8-mer CAGCTCCG], the binding signal is given as 10.3. In the case of CCCAGTCC [8-mer CCCAGTCC], the binding signal is listed as 10.3. For ACACTTAG [8-mer ACACTTAG], the binding signal is listed as 12.6. In the case of CCTCTTGA [8-mer CCTCTTGA], the binding signal is listed as 12.5. For CAAGTGGA [8-mer CAAGTGGA], the binding signal is listed as 12.5. For AGCGACCC [8-mer AGCGACCC], the binding signal is listed as 10.4.

Target: NKX2-5 R190C (Homo sapiens) (UniProt P52952)
Conditions: PBM; conditions not shown; double strand, one strand shown; scale: upbm affinity estimate (log intensity, higher = more binding, comparable within an allelic series)
In the case of GACACTTA [8-mer GACACTTA], the binding signal is given as 11. For CACTTGAC [8-mer CACTTGAC], the binding signal is given as 10.6. In the case of CACCTTGG [8-mer CACCTTGG], the binding signal is listed as 10.4. In the case of CCGTGGGC [8-mer CCGTGGGC], the binding signal is given as 10. For AAGTGGGC [8-mer AAGTGGGC], the binding signal is listed as 10.5. In the case of AAGTGGTC [8-mer AAGTGGTC], the binding signal is given as 10.5. In the case of CCACTTGA [8-mer CCACTTGA], the binding signal is listed as 10.6. For AAGTACTC [8-mer AAGTACTC], the binding signal is given as 10.6. For AATAAGTG [8-mer AATAAGTG], the binding signal is listed as 11. For ATAAGTAC [8-mer ATAAGTAC], the binding signal is given as 11. In the case of AACCACTT [8-mer AACCACTT], the binding signal is given as 10.8. For CCGGCGCC [8-mer CCGGCGCC], the binding signal is listed as 10.1. For AAACCGGT [8-mer AAACCGGT], the binding signal is listed as 10.3. In the case of CCACTTTA [8-mer CCACTTTA], the binding signal is listed as 10.9. For CTTCCGTC [8-mer CTTCCGTC], the binding signal is given as 10.4. In the case of CGGCCTGA [8-mer CGGCCTGA], the binding signal is given as 10.1. In the case of CGGGAACC [8-mer CGGGAACC], the binding signal is given as 10.1. For ACTAAGTG [8-mer ACTAAGTG], the binding signal is listed as 10.9. In the case of GCCGACCA [8-mer GCCGACCA], the binding signal is listed as 10.3. For CCACTCGA [8-mer CCACTCGA], the binding signal is given as 10.5. For CACTTCAA [8-mer CACTTCAA], the binding signal is listed as 10.8. In the case of ACACGGCG [8-mer ACACGGCG], the binding signal is given as 10.3. For CGAGCACG [8-mer CGAGCACG], the binding signal is listed as 10.3. For CCAGTTCG [8-mer CCAGTTCG], the binding signal is given as 10.4. In the case of CAAAAGTG [8-mer CAAAAGTG], the binding signal is given as 10.5. In the case of AACAGGCG [8-mer AACAGGCG], the binding signal is given as 10.4. In the case of CTGGGGGA [8-mer CTGGGGGA], the binding signal is given as 10.1. For GTACTTGA [8-mer GTACTTGA], the binding signal is given as 10.8. For GCGGTGCA [8-mer GCGGTGCA], the binding signal is listed as 10.1. In the case of CGCATCCC [8-mer CGCATCCC], the binding signal is given as 10.2. For AGTTCGGG [8-mer AGTTCGGG], the binding signal is given as 10.2. In the case of CCAGCACC [8-mer CCAGCACC], the binding signal is listed as 10. In the case of CGAACACG [8-mer CGAACACG], the binding signal is given as 10.4. For GCACTTGA [8-mer GCACTTGA], the binding signal is given as 10.7. In the case of CAGCTCCG [8-mer CAGCTCCG], the binding signal is listed as 10.2. For CCCAGTCC [8-mer CCCAGTCC], the binding signal is given as 10.1. For ACACTTAG [8-mer ACACTTAG], the binding signal is listed as 10.9. For CCTCTTGA [8-mer CCTCTTGA], the binding signal is listed as 10.6. For CAAGTGGA [8-mer CAAGTGGA], the binding signal is given as 10.6. For AGCGACCC [8-mer AGCGACCC], the binding signal is listed as 10.1.
